Laboratory results reported in the supplement of paper PMC11417369.
Some of the results follow.

Test system: PfSIP2 AP2 domain 1 (GST-tagged)
Assay: gcPBM binding intensity (ln(normalized median fluorescence intensity)); higher = stronger DNA binding
Summary of the method: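 In this array assay, P. falciparum DNA-binding domains with a GST tag, expressed in E. coli, were applied for 1 h to primer-extended double-stranded 36-bp intergenic genomic probes and negative controls on an Agilent 4 × 180k array. Bound protein was visualised with Alexa488 anti-GST antibody at 488 nm. Binding intensity is the highest Masliner-normalised natural-log median intensity across replicate spots of either probe orientation.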

Sequence	gcPBM binding intensity (ln)
AATATATATGGACATGCATGGACATAATAATCTATT [TGCATGCA_site838]	6.75
GAAAATAATGTTACATGTACGAATATGTAACTATTG [XGTACX_site6833]	6.84
CATAAAAATGTATCAAGTACACATTTATTTATCCAT [XGTACX_site152]	7.18
GTATAACACAAGTGAAGTACAGGGGTAAACATTTAT [XGTACX_site3203]	7.21
TACAGATAAAAGTACACACACACACCGATATATATA [CACACA_site4675]	7.46
TTAAAATAAAGAGCAGTGCGCATATTTTGTTATTAT [GTGCAC_site9753]	7.79
ATAAAAAAATATGTAAACATATATATGTATTTATGT [CACACA_negctrl_site1517]	7.04
AAACAATTTTTATTTTGTACATAACAATATATTTAT [XGTACX_site1375]	6.91
TTTTTTTTTAAAGAAAATAAAAATATGTACTTGACA [CACACA_negctrl_site1113]	6.96
TTTTTATATTTTATTAGTACTTATTATATATATAAT [XGTACX_site4900]	7.15
ATTTTACATATTTGCACACATATATTTATATACATA [CACACA_site854]	7.41
TTATTTGTTTAATATGCATGCTAAAAGGGTTGATGT [TGCATGCA_site581]	7.34
GAGTAAAACAAATATACACACCATAAAGTTATAAAA [CACACA_site5008]	6.86
AATATAAAAATGCACACACACAAAAAAAAAAAAAAA [CACACA_site6546]	7.37
AATTTAAATTCATCACGTACATACGTGAATATACAC [XGTACX_site5220]	7.24
TTTTTTTTTTGATGTTGTACATATATATTATATAAT [XGTACX_site2765]	7.17
GCTATTTATTTATATTGTACTTTTTTTTTTTTTTTT [XGTACX_site3624]	7.67
TATTTTGTTCTTTCCACACACAAATACCTATCTTGT [CACACA_site7833]	7.39
ATTCGTGAACTAGCCAAACACACGAAAAAAAAAAAA [CACACA_site3342]	7.04
ATGTAACATAGGAAATGTACATATAAATATAATTTA [XGTACX_site6452]	6.86
TTTTATTGATTATTCATAAATATGCTATTCATCTAA [CACACA_negctrl_site1084]	6.94
TTTTTTTTTGGGGGTGCATGCAAGACATATATTTAA [TGCATGCA_site228]	11.6
CATACATATATATATACACACATACATATATATACA [CACACA_site8165]	7.33

Sequence	gcPBM binding intensity (ln)
TATTTTAATATTTGTAGTACAGATTGAAATGACGAA [XGTACX_site4805]	7.85
ATATACGCATTAATAACACACAATATGATAACAAAT [CACACA_site3623]	7.2
AATATAATCTTTCAAAAGAAAAAGACTTCATGAAAA [CACACA_negctrl_site1331]	6.65
AAAATGTATGGAATGCTCTTTTTTAAGTATTATATA [GTGCAC_negctrl_site175]	6.69
ACAAAATTGATATATGCACACATATATATATTAAAT [CACACA_site8152]	7.26
GTAGGTTTATATTGTAGTACATACAAACGTTAACAA [XGTACX_site5476]	7.14
TTTATTTATTATTAAAGTACTAAAATATATTATTAT [XGTACX_site4887]	7.18
ATACGTATTTTCTTTTGTACATATATATAAAATATT [XGTACX_site2675]	7.23
TATATTTATTAGTTTCGTACGTACAAAGTTATTTTT [XGTACX_site8847]	7.07
AATATTGCACCATTTTGTACATAATATATTCAAATA [XGTACX_site475]	10.7
TGGTATCAAAAGAATACACACACACCGACATATATA [CACACA_site9265]	6.92
GAATATAAACATATTACACACATCTATCTGTACATT [CACACA_site5114]	7.04
GTGGGAAACATAAACACACACAAAAAGAAAAAATAG [CACACA_site4810]	6.97
TACATACATACATACACACACACATATAAATACATA [CACACA_site4626]	8.04
GTTTTATTTATTTCATGTACACAAAAAAGGTTTTAA [XGTACX_site6525]	7.56
TCTCTAACTTTTAATACACACAAATAAATAAATAAA [CACACA_site6245]	7.38
AATACATATATATATTGTACATATAGGGAAAAATTA [XGTACX_site2275]	7.06
AAAATAAAATAATAAAATAAAATAATAATAAAATAA [TGCATGCA_negctrl_site401]	6.68
AAAAAAAACGAACACACACACAAATATGTAAAAATA [CACACA_site6673]	6.9
CACACAATGGCTAGCTGTACATAATATATATCTACA [XGTACX_site4691]	7.12
TAAAAACAAAAATGTTGTACATAATATAAAACAATT [XGTACX_site6380]	7.04
TATATAAATATACAAACACACATACAAACATATATA [CACACA_site4754]	6.96
